# Results as given in the supplement of paper PMC11417369.
# The other results are listed elsewhere or left out.
# Test system: PF3D7_0420300 AP2 domain 1 (GST-tagged)
# Experiment: gcPBM binding intensity (ln(normalized median fluorescence intensity)); higher = stronger DNA binding
# Procedure, shortened: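 In this array assay, P. falciparum DNA-binding domains with a GST tag, expressed in E. coli, were applied for 1 h to primer-extended double-stranded 36-bp intergenic genomic probes and negative controls on an Agilent 4 × 180k array. Bound protein was visualised with Alexa488 anti-GST antibody at 488 nm. Binding intensity is the highest Masliner-normalised natural-log median intensity across replicate spots of either probe orientation.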
row,Sequence,gcPBM binding intensity (ln)
1,AAAAACAAAATATAATGTACACAATATATGTATATA [XGTACX_site2301],9.51
2,TTTCATCTCGTCATTTCTTATATAACTATTTTATAC [CACACA_negctrl_site813],9.39
3,ATTATTGTTTATTGATTTTTGTTAAAATAGGAAATT [GTGCAC_negctrl_site181],9.12
4,ATTATATTTATTAATATGTATATTTAATTATATTTA [XGTACX_negctrl_site376],9.1
5,AAGTGTAAAAGTTACACACACAAACTTGTCATTTTT [CACACA_site4614],9.74
6,CAAATTTTTTATTAAACACACAAACATATATATATA [CACACA_site5122],9.36
7,TTCTTTATTATATGCACACGTACATAAAATATATAT [CACACA_site5157],9.36
8,TATAAAAAATATATATATAATATTATATATATATAT [TGCATGCA_negctrl_site260],8.93
9,ATTTTTTTTTTTTTTTGTACGAATAATATGTATGAA [XGTACX_site5318],9.01
10,AAAGGAGGGAATTTTTCTAGGTGTGGAGTGCTACTC [XGTACX_negctrl_site63],9.44
11,TATATATATATATGTAGTACCTATAATATTAAATAC [XGTACX_site6118],9.19
12,AAGAAAAGAAACAAAAAAAAAAAGAAATAAAAGGAA [TGCATGCA_negctrl_site171],9.73
13,AATTTTTTTTTTTTTTTTTTTTATATATGTGTGTGT [XGTACX_negctrl_site129],9.74
14,TATGAATGGTTAAGTACACACATATTAATATAGGTA [CACACA_site7606],9.57
15,ATCAATAAATAAAATGTGCACATAATATATTAATAC,9.57
16,TTGAAGAAAAAAAAATGTACATAAAAAATATATATG [XGTACX_site428],9.23
17,CTTATAAATAAAAGAAGTACATGTTAGTTCAAGTTA [XGTACX_site4183],9.24
18,TTTTTGTTTCATAAATGTACAAAAACAAACATATTT [XGTACX_site5281],8.88
19,TTATATGTATATATAGTGCAGAACAAAAGATTATAT [GTGCAC_site9599],9.37
20,TCGTCTCAATAATTATAATAAAAAAATTCCTAAGTC [CACACA_negctrl_site338],9.06
21,ATTTTCCTATTTAGTAGTACTTTTTTCTTTTTTTAA [XGTACX_site5260],9.58
22,TTATATTTCACAAATGTGCACAGATACATATATATA,9.28
23,AAAAAAAAATAGAAATGTACAAATTGTAATAATTCC [XGTACX_site6182],9.34

row,Sequence,gcPBM binding intensity (ln)
1,GAGCATTACACATATACACACATATATATAAACATA [CACACA_site5515],9.7
2,TATAATAATATTTATTGTACGATTAGATTAATTCAT [XGTACX_site612],9.08
3,CATATGATATTATTTTGTACTTATTACAAATATGAA [XGTACX_site7929],8.94
4,ATATATATATATATTTGTACATAATATATATATGCA [XGTACX_site1795],9.11
5,AAACAATTTAGACATACACACAAAAATAATATTATA [CACACA_site384],9.88
6,CACGAAAATTTGTAGAGTACATATATAATTAATATA [XGTACX_site3808],9.15
7,ATATATATATATATATGTACATATTGTATTATTCAC [XGTACX_site6511],9.19
8,ATTAAAAAAAAGCTCATCGAAATGTCTTATATAAAT [CACACA_negctrl_site912],9.17
9,CAATTAAACAATTAAACATGCAAAATGATATAATAA [TGCATGCA_site240],9.46
10,AAATTAAAATATAATACACACATAAAAAAAAAATCA [CACACA_site5918],9.85
11,GTATATGAATGTTCATGTACATAATAAAATATATAA [XGTACX_site250],9.14
12,ATATATATATATAAAGTGCAAAAATGAAAGTAAGAC [GTGCAC_site9850],10
13,ATAAAATATAAAAACGCACACAATTATAAGGGTGTA [CACACA_site177],9.71
14,ATGTTCTATAAATATGAACACACGACATATTATTTA [CACACA_site1799],9.12
15,TATATTTAATTACATGAACACACATTATATATTTTT [CACACA_site8969],9.34
16,TGTAGTATCAATTTTTGTACATAACACATATGTATA [XGTACX_site613],9.12
17,ATATATATATATATATGTACATATTATTCTCATTGT [XGTACX_site6259],9.13
18,AAAACAAACACATTTACACACATAAATAAATCAATT [CACACA_site4122],9.81
19,TTTATTTTTCCATATGCACACACACCGTATATATAA [CACACA_site8293],9.98
20,AAAATATAAATATATTTGAACATGGATCAAATGTAA [GTGCAC_negctrl_site626],9.18
21,TATTCATTCTATAAAACACACAAATATTTTTGTATC [CACACA_site666],9.26
22,ATACATACATACATACGTACATATGTATATATATAT [XGTACX_site8498],9.38
